Binding data for one substance are collected here from PMC6400558 (2019).

Residue numbers refer to the chain shown, from its start. These are yes or no findings as the source states them, for the method shown. Binding seen in cells or lysates may run through a third protein. Some results given as binding are weak or reduced against the parent protein; the word gives no strength. For some of these results: Where a sequence is shown, tags or fusion partners need not be part of it.

Assay [1] concerns the target T1, MBP-tagged Hook2 Hook+CC1 (N427) WT (human) (UniProt Q96ED9).
T1 sequence: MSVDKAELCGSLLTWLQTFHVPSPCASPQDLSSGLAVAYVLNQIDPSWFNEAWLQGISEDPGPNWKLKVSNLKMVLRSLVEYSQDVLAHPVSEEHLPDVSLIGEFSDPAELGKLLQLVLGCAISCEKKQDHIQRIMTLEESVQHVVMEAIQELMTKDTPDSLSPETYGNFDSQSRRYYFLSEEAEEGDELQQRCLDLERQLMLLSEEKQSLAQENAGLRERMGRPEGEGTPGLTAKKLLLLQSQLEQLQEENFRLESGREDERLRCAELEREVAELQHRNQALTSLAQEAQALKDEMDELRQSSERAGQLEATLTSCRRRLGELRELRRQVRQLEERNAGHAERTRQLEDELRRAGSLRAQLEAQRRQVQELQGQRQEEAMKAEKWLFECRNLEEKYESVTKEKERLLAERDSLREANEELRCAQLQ
In words: pull-down; MBP-tagged Hook2 N427 (WT or mutants) on amylose beads incubated with whole-cell lysate of HEK293T cells (asynchronous, or harvested in cytokinesis for MKLP1), 4°C, 3 h, 20 mM Hepes pH 7.4, 350 mM NaCl, 1 mM DTT, 2 mM MgCl2, 0.1% Triton X-100, 2 mg/ml BSA; immunoblot; only the target purified.

Assay [2] deals with T2, MBP-tagged Hook2 N427 I150A (human) (UniProt Q96ED9).
T2 sequence: T1 sequence with I150A
Described as above.

For assay [3], the target named is T3, MBP-tagged Hook2 N427 Q143A (human) (UniProt Q96ED9).
T3 sequence: T1 sequence with Q143A
The description is as above.

Assay [4] addresses T4, Hook2 (endogenous) (human (endogenous in HEK293T)) (UniProt Q96ED9).
T4 sequence: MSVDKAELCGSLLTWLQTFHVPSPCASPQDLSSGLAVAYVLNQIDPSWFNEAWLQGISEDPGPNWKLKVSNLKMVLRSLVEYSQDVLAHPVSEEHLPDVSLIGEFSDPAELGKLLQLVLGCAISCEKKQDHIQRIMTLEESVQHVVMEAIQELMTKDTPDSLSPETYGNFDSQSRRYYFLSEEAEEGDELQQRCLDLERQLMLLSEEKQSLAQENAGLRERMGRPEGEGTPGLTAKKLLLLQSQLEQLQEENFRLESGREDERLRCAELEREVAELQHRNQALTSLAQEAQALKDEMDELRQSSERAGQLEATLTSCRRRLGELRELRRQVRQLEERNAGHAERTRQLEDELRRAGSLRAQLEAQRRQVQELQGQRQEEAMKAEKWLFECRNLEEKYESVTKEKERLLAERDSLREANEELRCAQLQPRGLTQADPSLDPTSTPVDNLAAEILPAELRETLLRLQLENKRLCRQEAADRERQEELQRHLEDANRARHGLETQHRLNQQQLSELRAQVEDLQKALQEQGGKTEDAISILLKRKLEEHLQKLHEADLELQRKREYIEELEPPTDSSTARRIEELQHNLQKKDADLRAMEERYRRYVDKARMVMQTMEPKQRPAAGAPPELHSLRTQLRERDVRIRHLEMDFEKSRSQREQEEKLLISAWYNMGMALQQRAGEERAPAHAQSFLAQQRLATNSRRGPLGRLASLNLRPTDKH
Description: co-IP; endogenous proteins; HEK293T lysates in TAP lysis buffer (20 mM Tris-HCl pH 7.4, 150 mM NaCl, 0.5% NP-40) with antibody on protein-A/G beads, 3 h, 4°C; cells asynchronous or synchronized (G2, prometaphase, metaphase/anaphase, cytokinesis), with control or other siRNAs or Hook2 plasmids; immunoblot. On the technique in general: In western blotting, separated proteins are transferred to a membrane and probed.

As to “p150^glued (from UniProt Q14203-1 1-1278)”, the binding entry in assay [1] is “binds”; in assay [2] it was “no binding”; in assay [3] it was “no binding”; in assay [4] it was “binds”.
